About 120 (0.25%) of roughly 48,000 compounds were called active. Roughly 4% stayed inconclusive and do not appear here. Calls follow the shape of the dose curve; as a rule, active = well fitted activation curve with a large enough effect; inconclusive = small, poorly fitted or top-dose-only effect, or another doubt; inactive = no such curve, though single readings can be large or run the other way. This is one part of the list.
Experiment: Primary qHTS for Identification of Small Molecule Activators of Huntingtin-Antisense Promoter Activity; also: nearly all actives have a fitted effect of over 55% in size
Conditions: HEK293 HTT-AS promoter firefly luciferase reporter, 24 h; series mostly up to 57.5 µM; activity change, positive = activation: at the top concentration
Outline: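 Firefly luciferase signal from promoter-reporter HEK293 cells was scaled between vehicle (0%) and zero RLU (-100%). Compounds were tested at final concentrations of up to 57.5 uM over 24 h at 37 degrees C. PTC124 at 50 uM final served as control inhibitor.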

Activity change, positive = activation, inactive:
COc1cc(C2CC(=O)Nc3cc4c(cc32)OCO4)cc(OC)c1O (stereo unspecified) -9.67%
Cc1c(C)n(Cc2ccc(Cl)cc2)c2ccc(C(=O)N3CCN(c4ccccc4F)CC3)cc12 -19.7%
Cc1cccc(-c2nn(C(=S)Nc3ccccc3)cc2-c2ccnc3ccccc23)n1 -24.8%
COc1ccc(OC)c(CCNC(=O)c2nc(-c3ccc(Cl)cc3)n3c2CCCCC3)c1 -28.4%
COCCc1ccc(OCC(O)CNC(C)C)cc1 (stereo unspecified) -3.47%
CCc1cccc(CC)c1NC(=O)CN(C)S(=O)(=O)c1ccc2c(c1)n(C)c(=O)c(=O)n2C -9.78%
CSc1nn(Cc2ccc(F)cc2)c(N(C(C)=O)C(C)=O)c1S(=O)(=O)c1ccccc1 -33.9%
Cc1ccc(C(=O)CSc2nc(C)cc(C)c2C(=O)Nc2cccc(C)c2)cc1 -14.2%
COc1cccc(CNC(=O)C2CCCN(c3nnc(-n4c(C)ccc4C)s3)C2)c1OC (stereo unspecified) -5.75%
O=C(NCCc1ccc(Cl)cc1)C1CCN(S(=O)(=O)c2ccc3[nH]ccc3c2)CC1 -24.1%
COc1ccc(CCNC(=O)C(=O)NCC(c2cccs2)S(=O)(=O)c2ccc(F)cc2)cc1 (stereo unspecified) -37.5%
COc1ccc(-c2noc(CNC(=O)COc3cccc(C)c3C)n2)cc1 -5.55%
O=C(COCc1cc(-c2ccc3c(c2)OCO3)on1)Nc1cc(Cl)ccc1O 4.71%
CCOC(=O)c1c(C)oc2nc(C)nc(NCCCN3CCN(c4cc(C)ccc4C)CC3)c12 -1.83%
CC(C)c1ccc(Nc2c(-c3ccccn3)nc3ccccn23)cc1 -66.9%
COc1ccc(-c2nc(CSCC(=O)NCc3ccccc3Cl)c(C)o2)cc1OC -32.7%
CNC(=O)C1CCC(Cn2c(=O)c3sccc3n(CC(=O)N3CCC(C)CC3)c2=O)CC1 (stereo unspecified) -10.5%
Cc1ccc(-n2ncc(C(=O)NCc3ccco3)c2C2CCN(C(=O)OC(C)(C)C)CC2)cc1 -24.2%
Cc1ccc2nc(Cl)c3cc(C(=O)N4CCCCC4)sc3c2c1 2.81%
Cn1c(=O)c2c(-c3ccc(Cl)cc3)n(CCc3ccccc3)cc2n(C)c1=O -20.6%
COC(=O)c1cc(S(=O)(=O)NCC2CCN(Cc3cccc(F)c3)CC2)cn1C -13.3%
Cc1cc(C)c(Cn2c(=O)n(CCCC(=O)NCc3ccc4c(c3)OCO4)c(=O)c3sccc32)c(C)c1 -11.4%
OCc1ccccn1 -10.3%
CN(C(=O)c1c(O)c2ccccc2n(C)c1=O)c1ccccc1 -5.82%
COc1ccc(N(C(=O)Cn2nnc3ccccc32)C(C(=O)NCc2ccccc2)c2ccc(F)cc2)cc1 (stereo unspecified) -15.9%
Cn1nnc2c(NCc3c(F)cccc3F)ncnc21 3.89%
COc1ccc(N2CCN(Cc3nc4c(c(=O)[nH]c(=O)n4C)n3Cc3ccccc3F)CC2)cc1 -8.98%
COc1ccc(CCNC(=O)c2cc(=O)c3cc(C)c(C)cc3o2)cc1OC 17.2% [at 11.5 µM, percent change from vehicle, -100% = no light]
Cn1c(=O)c2c(nc(SCC(=O)Nc3ccc(F)c(F)c3)n2Cc2ccccc2F)n(C)c1=O -34.7%
CCc1ccc(C(=O)CC2(O)C(=O)N(CCc3ccccc3)c3ccc(Cl)cc32)cc1 (stereo unspecified) -48.6%
Cc1ccc(S(=O)(=O)NCCc2nnc3ccc(SCC(=O)Nc4ccc(F)cc4F)nn23)cc1 -2.6%
COc1ccc(CCNC(=O)CCc2c(C)nc3cc(-c4cccc(F)c4)nn3c2C)cc1OC -50.9%
CCOC(=O)Cn1c(=O)n(CC2CCCO2)c2nc(-c3cc(OC)ccc3OC)nc(C(N)=O)c21 (stereo unspecified) -13.6%
CC(C)c1nn2c(=O)cc(COC(=O)c3ccc(NC(=O)c4cccs4)cc3)nc2s1 1.34%
CCCOc1ccc(C(=O)N(Cc2ccco2)Cc2ccco2)cc1 0.407%
O=C(NCC(c1cccs1)S(=O)(=O)c1cccs1)c1c(F)cccc1F (stereo unspecified) -12.2%
COc1ccc(OC(=O)c2nc(SCc3ccccc3C)ncc2Cl)cc1 2.64%
Cc1ccccc1OCC(=O)Nc1ccccc1OCc1cc(=O)n2ccccc2n1 7.4%
COc1ccnc(CS(=O)c2nc3ccc(OC(F)F)cc3[nH]2)c1OC (stereo unspecified)
COc1cccc(CSc2nc3n(n2)C(CC(C)C)C(C(=O)Nc2ccccc2C)=C(C)N3)c1 (stereo unspecified) -0.845%
COc1ccc(C(=O)Nc2cccc(C(=O)OCc3cc(=O)n4c5c(sc4n3)CCCC5)c2)cc1 -18.1%
Cc1ccc(CCNC(=O)CCCc2nnc3n(C)c(=O)c4sccc4n23)cc1 4.5%
Cc1cc(C)c2c(CC(=O)Nc3cc(C(F)(F)F)ccc3Cl)coc2c1 -13.1%
COc1ccccc1-n1c(=O)n(C)c2c(C(N)=O)nc(-c3cccc(OC)c3OC)nc21 -14.8%
CC(NC(=O)c1ccc2c(c1)sc1nc(-c3ccc(F)cc3)cn12)C12CC3CC(CC(C3)C1)C2 (stereo unspecified) 15.7%
FC(F)(F)c1cccc(Nc2c3c(nc4ccc(Cl)cc24)CCC3)c1 -49.7%
COc1cc(OC)c(NC(=O)CCc2c(C)nc3c4c(C)cc(C)nc4nn3c2C)cc1Cl -6.28%
CCCCCN1C(C(=O)c2ccccc2)=C(OC(=O)CC)c2ccccc2S1(=O)=O -43.3%
COc1cc(NC(=O)C2CCN(S(=O)(=O)c3c(C)noc3/C=C/c3ccccc3F)CC2)cc(OC)c1OC -27.1%
Cc1ccc(CCNC(=O)c2ccc(Nc3nc4ccccc4n4nnnc34)cc2)cc1 2.95%
CCN(CCCNC(=O)Cn1ncc2c([nH]c3ccc(C)cc32)c1=O)c1ccccc1 -15.2%
N#Cc1cc2c(=O)n3ccccc3nc2n(-c2nnc(SCc3ccccc3Cl)s2)c1=O 8.37%
CCC(Sc1nc2n[nH]c(C)c2c(=N)n1-c1ccccc1Cl)C(=O)N(CC)CC (stereo unspecified) -22.8%
Cc1cccc(NC(=O)c2cc3c(=O)n(Cc4cccnc4)ccc3nc2C)c1 -7.24%
COc1ccc(NC(=O)CCn2cnc3onc(-c4ccc(F)cc4)c3c2=O)cc1OC -54%
CC1Cn2c(C(=O)NCc3ccccc3Cl)cc3cccc(c32)S1 (stereo unspecified) -12%
CCC(=O)N1c2ccccc2CC1C(=O)NCc1cc(Br)ccc1OC (stereo unspecified) -2.15%
[Cl][In]([Cl])[Cl] -17.9% [at 116 µM, percent change from vehicle, -100% = no light]
Cc1ccc2oc3c(c(=O)c2c1)C(c1ccc(O)cc1)N(c1nc(C)c(C)s1)C3=O (stereo unspecified) -4.25%
CCC(=O)Nc1nnc(S(=O)(=O)N2c3ccccc3CC2C)s1 (stereo unspecified) -9.63%
CC(C)Cc1ccc(C(C)C(=O)O)cc1 (stereo unspecified)
Cc1ccc(CNc2nc3ccccc3n3cnnc23)cc1 -8.95%
Cc1csc2nc(COC(=O)c3ccc(NC(=O)C(C)Oc4ccccc4)cc3)cc(=O)n12 (stereo unspecified) -29.3%
COc1ccc(NC(=O)c2cnc(N3CCCC3)nc2)cc1OC -0.561%
COc1ccc(CN2CCN(C(c3ccc(F)cc3)c3ccc(F)cc3)CC2)c(OC)c1OC -26.9%
CCCC1=Nc2cc(C(=O)N3CCC(C(=O)OCC)CC3)ccc2Sc2ccccc21 -32.6%
Cc1cccc(NC(=O)C2CCCN2S(=O)(=O)c2ccc3c(c2)n(C)c(=O)c(=O)n3C)c1 (stereo unspecified) -0.0064%
Cc1cc(C)c2oc(-c3cccc(NC(=O)c4ccc(-c5cccc([N+](=O)[O-])c5)o4)c3)nc2c1 12.2%
O=C(NCc1cccc(F)c1)c1ccccc1NC(=O)c1nsc2ccccc12 -9.26%
O=C(C1CCCN(S(=O)(=O)c2cccc3nsnc23)C1)N1CCN(c2cccc(Cl)c2)CC1 (stereo unspecified) -71.1%
Cc1ccc2nc(-c3ccccn3)c(Nc3ccccc3C)n2c1 -75.3%
CCCN1CCc2nc(N3CCN(C)CC3)ncc2C1 -17.7%
CCN(CC)c1nn2c(=O)c(C(=O)NCCc3cccc(C)c3)cnc2s1 -20.9%
CCc1cccc(C)c1NS(=O)(=O)c1ccc2c(c1)CC(C)N2C(=O)C1CC1 (stereo unspecified) -50.4%
COc1ccc(-c2noc(CSc3nc4ccccc4[nH]3)n2)cc1OC -27.9%
COc1ccc(S(=O)(=O)NCCc2csc3nc(-c4ccccc4)nn23)cc1OC -20.3%
CCN1C(=O)C(O)(c2c[nH]c3ccccc23)c2cc(Br)ccc21 (stereo unspecified) -13.3%
Cc1cccc(Cn2c(=O)n(-c3ccccc3C)c(=O)c3c2c2cc(C)ccc2n3C)c1 -19.4%
Cc1ccc(CCNC(=O)C2CCN(S(=O)(=O)c3ccc4c(ccn4C)c3)CC2)cc1 -12.4%
Cc1ccc(-c2nc3c4c(-c5ccccc5)c(-c5ccccc5)oc4ncn3n2)cc1 -6.13%
Cc1ccc(CNC(=O)CSc2nc3ccccc3nc2Cc2ccc(C)cc2)cc1 -4.34%
CCOc1ccc(NC(=O)c2c(C)oc3nc(C)nc(N4CCOCC4)c23)cc1 -4.4%
Cc1cccc(-c2nc3c(cnn3-c3ccccc3)c(=O)n2-c2ccc(Cl)cc2)c1 17.9%
COc1ccc(NC(=O)CSc2nc(C)cc(C)c2C(=O)Nc2ccccc2OC)cc1 -18.3%
COc1ccc(S(=O)(=O)NCC(c2ccco2)S(=O)(=O)c2cccs2)cc1F (stereo unspecified) -15.5%
O=C(CCSCc1cccc(Cl)c1)NCCc1ccc(Cl)cc1 -3.82%
CC(C)N1[N]C(=C2C=c3cc(O)ccc3=N2)c2c(N)ncnc21 -44%
O=C(c1ccccc1)N1CCc2cc(CNS(=O)(=O)c3ccc(Cl)s3)ccc21 -37.2%
CCc1ccc(C(=O)C(C)CN2CCCCC2)cc1 (stereo unspecified) -10.2%
COc1ccc(-n2c(SCC(=O)NCc3ccc(F)cc3)nc3c([nH]c4ccccc43)c2=O)cc1 -28.5%
Cc1oc(-c2ccc(Cl)cc2)nc1Cn1c(=O)cc(C)c2c(C)nn(-c3ccccc3)c21 -7.3%
COc1ccccc1CNC(=O)CCCCn1c(=O)c2ccccc2n(Cc2ccccc2F)c1=O -15.6%
CC(=O)Nc1cccc(NC(=O)Cn2cnc3c(oc4ccccc43)c2=O)c1 6.88%
Cn1c(=O)n(C)c2cc(N3CCOCC3)c(NS(=O)(=O)c3cccc(C#N)c3)cc21 0.825%
Cc1sc2c(c1C)c(=O)n(-c1ccc(Cl)cc1)c(=O)n2Cc1cc(=O)n2ccccc2n1 2.89%
Cc1ccc2nc(N3CCC(C(=O)N4CCN(c5cccc(C)c5C)CC4)CC3)[nH]c2c1 -30.7%

Source: PubChem BioAssay AID1508624 (National Center for Advancing Translational Sciences (NCATS), 2021)
